These results are taken from PMC5399170.

Chains of the proteins cited; added tags and fusions are not shown.
UniProt O95863: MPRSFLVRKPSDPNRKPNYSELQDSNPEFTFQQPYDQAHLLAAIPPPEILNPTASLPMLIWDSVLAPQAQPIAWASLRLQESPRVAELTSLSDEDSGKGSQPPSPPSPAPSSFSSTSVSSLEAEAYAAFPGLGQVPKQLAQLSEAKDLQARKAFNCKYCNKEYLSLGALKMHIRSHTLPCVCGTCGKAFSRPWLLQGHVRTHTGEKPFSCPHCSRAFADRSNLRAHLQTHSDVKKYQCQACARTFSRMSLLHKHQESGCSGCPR
UniProt Q13547: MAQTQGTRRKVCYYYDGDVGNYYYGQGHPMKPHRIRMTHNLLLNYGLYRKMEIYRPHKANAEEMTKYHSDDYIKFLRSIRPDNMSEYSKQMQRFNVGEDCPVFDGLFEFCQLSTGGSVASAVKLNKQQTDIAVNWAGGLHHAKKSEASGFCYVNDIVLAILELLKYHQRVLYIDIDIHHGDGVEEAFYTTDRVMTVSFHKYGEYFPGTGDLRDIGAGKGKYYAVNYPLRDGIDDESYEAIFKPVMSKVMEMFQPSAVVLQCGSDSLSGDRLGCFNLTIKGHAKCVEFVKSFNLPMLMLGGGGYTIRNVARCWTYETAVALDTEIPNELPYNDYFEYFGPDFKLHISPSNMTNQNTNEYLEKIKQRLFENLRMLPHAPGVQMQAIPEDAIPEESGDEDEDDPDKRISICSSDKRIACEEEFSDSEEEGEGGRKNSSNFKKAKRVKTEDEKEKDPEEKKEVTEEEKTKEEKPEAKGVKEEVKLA

Experiment [1] addresses T1, Flag-DACH1 (Dachshund homologue 1) (human) (UniProt Q9UI36).
T1 sequence: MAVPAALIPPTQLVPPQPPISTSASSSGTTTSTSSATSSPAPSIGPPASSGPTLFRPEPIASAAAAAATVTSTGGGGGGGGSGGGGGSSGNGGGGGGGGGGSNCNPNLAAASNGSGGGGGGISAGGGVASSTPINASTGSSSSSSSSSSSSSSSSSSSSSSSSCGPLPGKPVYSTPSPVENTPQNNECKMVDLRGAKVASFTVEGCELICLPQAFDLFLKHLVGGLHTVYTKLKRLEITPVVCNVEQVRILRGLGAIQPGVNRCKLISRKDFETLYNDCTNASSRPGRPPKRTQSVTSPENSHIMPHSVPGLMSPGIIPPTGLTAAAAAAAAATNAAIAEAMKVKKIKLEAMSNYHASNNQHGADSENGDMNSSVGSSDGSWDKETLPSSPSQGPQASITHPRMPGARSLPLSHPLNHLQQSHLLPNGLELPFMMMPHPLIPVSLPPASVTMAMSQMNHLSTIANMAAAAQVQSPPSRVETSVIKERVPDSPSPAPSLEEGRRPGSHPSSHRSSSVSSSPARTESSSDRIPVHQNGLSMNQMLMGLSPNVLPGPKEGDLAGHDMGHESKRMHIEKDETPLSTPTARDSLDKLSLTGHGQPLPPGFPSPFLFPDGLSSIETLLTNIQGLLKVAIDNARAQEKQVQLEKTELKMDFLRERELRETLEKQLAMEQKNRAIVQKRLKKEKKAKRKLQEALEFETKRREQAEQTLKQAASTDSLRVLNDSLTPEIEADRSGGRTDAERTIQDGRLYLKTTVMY
The experiment is described as follows: co-IP; MCF-7 cells cotransfected with Flag-DACH1 and GFP-SNAI1 or HA-SNAI2; 24 h after transfection immunoprecipitation with anti-Flag or anti-HA antibody, western blot. In general terms: A western blot detects proteins with antibodies after separation by electrophoresis.

The target in the next experiment is GFP-SNAI1 (UniProt O95863). The experiment can be described thus: co-IP; MCF-7 cells cotransfected with Flag-DACH1, GFP-SNAI1 or Myc-HDAC1; effect of DACH1 overexpression.
The next experiment addresses GST-SNAI1 fusion protein (UniProt O95863). The experiment can be described thus: pull-down; purified GST-SNAI1 (bait) immobilised on the Pierce Spin Column; DACH1 as prey from MCF-7 cell lysate; only the target purified.
In experiment [2] the target is endogenous SNAI1 (human (endogenous in MCF-7)) (UniProt O95863). The experiment is described as follows: co-IP; endogenous proteins of MCF-7 cells; immunoprecipitation with anti-SNAI or anti-DACH1 antibody (anti-IgG control), western blot with anti-DACH1 or anti-SNAI antibody.
A further experiment deals with pBIND-SNAI1 (UniProt O95863). The experiment can be described thus: two-hybrid; mammalian two-hybrid (Checkmate, Promega) in MCF-7 cells; pACT-DACH1 and pBIND-SNAI1; luciferase measured 48 h after transfection, normalized against β-galactosidase.
For a further experiment, the target named is T2, HA-SNAI2 (UniProt O43623).
T2 sequence: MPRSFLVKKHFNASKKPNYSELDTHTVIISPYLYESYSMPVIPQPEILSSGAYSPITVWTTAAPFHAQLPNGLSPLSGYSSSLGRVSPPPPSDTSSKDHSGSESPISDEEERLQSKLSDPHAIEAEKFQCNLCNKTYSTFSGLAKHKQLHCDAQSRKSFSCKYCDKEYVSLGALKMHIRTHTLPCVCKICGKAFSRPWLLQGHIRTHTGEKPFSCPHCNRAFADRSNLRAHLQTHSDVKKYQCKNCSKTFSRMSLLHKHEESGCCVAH
The experiment can be described thus: co-IP; MCF-7 cells cotransfected with Flag-DACH1 and GFP-SNAI1 or HA-SNAI2; 24 h after transfection immunoprecipitation with anti-Flag or anti-HA antibody, western blot.

Results are given in words; binding and its absence hold for the method and conditions named. For part of these data: Binding seen in cells or lysates may run through a third protein. Some results given as binding are weak or reduced against the parent protein; the word gives no strength. For part of these data: Where a sequence is shown, tags or fusion partners need not be part of it.

Take GFP-SNAI1 (from UniProt O95863 1-264): in experiment [1], the binding entry is recorded as “binds”.
Regarding Myc-HDAC1 (from UniProt Q13547 1-482), the binding result with GFP-SNAI1 was “binds”.

B1: endogenous DACH1 (protein, UniProt Q9UI36 1-758)
chain: MAVPAALIPPTQLVPPQPPISTSASSSGTTTSTSSATSSPAPSIGPPASSGPTLFRPEPIASAAAAAATVTSTGGGGGGGGSGGGGGSSGNGGGGGGGGGGSNCNPNLAAASNGSGGGGGGISAGGGVASSTPINASTGSSSSSSSSSSSSSSSSSSSSSSSSCGPLPGKPVYSTPSPVENTPQNNECKMVDLRGAKVASFTVEGCELICLPQAFDLFLKHLVGGLHTVYTKLKRLEITPVVCNVEQVRILRGLGAIQPGVNRCKLISRKDFETLYNDCTNASSRPGRPPKRTQSVTSPENSHIMPHSVPGLMSPGIIPPTGLTAAAAAAAAATNAAIAEAMKVKKIKLEAMSNYHASNNQHGADSENGDMNSSVGSSDGSWDKETLPSSPSQGPQASITHPRMPGARSLPLSHPLNHLQQSHLLPNGLELPFMMMPHPLIPVSLPPASVTMAMSQMNHLSTIANMAAAAQVQSPPSRVETSVIKERVPDSPSPAPSLEEGRRPGSHPSSHRSSSVSSSPARTESSSDRIPVHQNGLSMNQMLMGLSPNVLPGPKEGDLAGHDMGHESKRMHIEKDETPLSTPTARDSLDKLSLTGHGQPLPPGFPSPFLFPDGLSSIETLLTNIQGLLKVAIDNARAQEKQVQLEKTELKMDFLRERELRETLEKQLAMEQKNRAIVQKRLKKEKKAKRKLQEALEFETKRREQAEQTLKQAASTDSLRVLNDSLTPEIEADRSGGRTDAERTIQDGRLYLKTTVMY
Consider B1, for which the binding entry (in the experiment with GST-SNAI1 fusion protein; in experiment [2]) was “binds” in each case.

B2: pACT-DACH1 (protein, UniProt Q9UI36 1-758)
chain: MAVPAALIPPTQLVPPQPPISTSASSSGTTTSTSSATSSPAPSIGPPASSGPTLFRPEPIASAAAAAATVTSTGGGGGGGGSGGGGGSSGNGGGGGGGGGGSNCNPNLAAASNGSGGGGGGISAGGGVASSTPINASTGSSSSSSSSSSSSSSSSSSSSSSSSCGPLPGKPVYSTPSPVENTPQNNECKMVDLRGAKVASFTVEGCELICLPQAFDLFLKHLVGGLHTVYTKLKRLEITPVVCNVEQVRILRGLGAIQPGVNRCKLISRKDFETLYNDCTNASSRPGRPPKRTQSVTSPENSHIMPHSVPGLMSPGIIPPTGLTAAAAAAAAATNAAIAEAMKVKKIKLEAMSNYHASNNQHGADSENGDMNSSVGSSDGSWDKETLPSSPSQGPQASITHPRMPGARSLPLSHPLNHLQQSHLLPNGLELPFMMMPHPLIPVSLPPASVTMAMSQMNHLSTIANMAAAAQVQSPPSRVETSVIKERVPDSPSPAPSLEEGRRPGSHPSSHRSSSVSSSPARTESSSDRIPVHQNGLSMNQMLMGLSPNVLPGPKEGDLAGHDMGHESKRMHIEKDETPLSTPTARDSLDKLSLTGHGQPLPPGFPSPFLFPDGLSSIETLLTNIQGLLKVAIDNARAQEKQVQLEKTELKMDFLRERELRETLEKQLAMEQKNRAIVQKRLKKEKKAKRKLQEALEFETKRREQAEQTLKQAASTDSLRVLNDSLTPEIEADRSGGRTDAERTIQDGRLYLKTTVMY
B2: the binding entry with pBIND-SNAI1 is recorded as “binds”.

B3: Flag-DACH1 (Dachshund homologue 1) (protein, UniProt Q9UI36 1-758)
chain: MAVPAALIPPTQLVPPQPPISTSASSSGTTTSTSSATSSPAPSIGPPASSGPTLFRPEPIASAAAAAATVTSTGGGGGGGGSGGGGGSSGNGGGGGGGGGGSNCNPNLAAASNGSGGGGGGISAGGGVASSTPINASTGSSSSSSSSSSSSSSSSSSSSSSSSCGPLPGKPVYSTPSPVENTPQNNECKMVDLRGAKVASFTVEGCELICLPQAFDLFLKHLVGGLHTVYTKLKRLEITPVVCNVEQVRILRGLGAIQPGVNRCKLISRKDFETLYNDCTNASSRPGRPPKRTQSVTSPENSHIMPHSVPGLMSPGIIPPTGLTAAAAAAAAATNAAIAEAMKVKKIKLEAMSNYHASNNQHGADSENGDMNSSVGSSDGSWDKETLPSSPSQGPQASITHPRMPGARSLPLSHPLNHLQQSHLLPNGLELPFMMMPHPLIPVSLPPASVTMAMSQMNHLSTIANMAAAAQVQSPPSRVETSVIKERVPDSPSPAPSLEEGRRPGSHPSSHRSSSVSSSPARTESSSDRIPVHQNGLSMNQMLMGLSPNVLPGPKEGDLAGHDMGHESKRMHIEKDETPLSTPTARDSLDKLSLTGHGQPLPPGFPSPFLFPDGLSSIETLLTNIQGLLKVAIDNARAQEKQVQLEKTELKMDFLRERELRETLEKQLAMEQKNRAIVQKRLKKEKKAKRKLQEALEFETKRREQAEQTLKQAASTDSLRVLNDSLTPEIEADRSGGRTDAERTIQDGRLYLKTTVMY
For B3, the binding result with HA-SNAI2 is given as “no binding”.
